Data on 167 variants can be found in the RNAGym collection of RNA variant scans (doi:10.1093/nar/gkz1192).

Read counts are not given, so values of variants with three or more changes are uncertain.

B1: CPEB3 Ribozyme (parent)
chain: UAACAGGGGGCCACAGCAGAAGCGUUCACGUCGCAGCCCCUGUCAGAUUCUGGUGAAUCUGCGAAUUCUGCUGUAUAUCUC

The variants in the series derive from B1. Briefly: self-cleavage, relative activity (ratio to wild type); higher = more cleavage; in vitro, sequencing. The method in brief: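 Libraries of CPEB3 self-cleaving ribozyme mutants came from rounds of error-prone PCR and carried barcodes, which DNA sequencing matched to variants. In vitro transcription used T7 RNA polymerase at 37°C for 5 hours, with a further 15 min in DNase I before EDTA stopped the reaction; the ribozymes cleaved during both steps. The RNA was reverse transcribed with template switching and sequenced on Illumina. Relative activity is the cleaved/total read fraction of a variant divided by that of the unmutated ribozyme, averaged over three batches with at least 5 reads.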
In the case of A18G C32U C34A U43C, the self-cleavage is 0.22.
For A18G A21C G33A U49A A57G A64G the value was 0.07; for A18G A20G A35U, 0.12; for A18G C34U U74C, 0.62.
For A18C U41C U43C C68A the value was 0.11; for A18G C29A A56G A77G, 0.16.
The figure for A18C U51A A64G is 0.21; for A18G U25C U31C U78A it is 0.22.
In the case of A18G U25A U76C, the self-cleavage came to 0.26.
For the variant A18G A28G U60A G61U C62U U76A, the self-cleavage amounted to 0.1.
For A18G C27U C40A U41C A47G A64G the value was 0.09.
For A18G A56G U58C U66C the value was 0.17; for A18G A45U A47U, 0.26.
Consider A18G G46U A65G, for which the self-cleavage is 0.11.
For A18G A28G U43A A57G U72C U80A the value was 0.29.
With A18G U25C U54A A64G, the self-cleavage stood at 0.17.
A18G A28U C34U: the self-cleavage worked out at 0.15.
The figure for A18G A20G U67C U72C is 0.25.
Turning to A18C U41A U43A U51A G55A A57U, the self-cleavage was 0.26.
A18G U25C A35G A64U A75G A77G: the self-cleavage turned out to be 0.02.
For A18G G22C A28U U41C A47G U74C the value was 0.17; for A18G A45G G55C, 0.19; for A18G A21G U51G, 0.47.
The figure for A18G A56G U67C U72A is 0.14; for A18G A21G A28G C32U A64G U69A it is 0.06.
The figure for A18G A21U A57G U72C is 0.05; for A18G A45U A57G U69A it is 0.13.
In the case of A18G A20G C32U A45G U67C, the self-cleavage was found to be 0.06.
The figure for A18G A20G U25C U26C U48C U78C is 0.04; for A18G A45G U58C U66C it is 0.12.
As to A18G A28C A45G U67A, the self-cleavage worked out at 0.14.
Take A18G G19U C38U A56G A75G: the self-cleavage is 0.09.
For A18G A20G A64U U67A the value was 0.17.
The figure for A18G A21U A57G is 0.32; for A18C U60A A65G U78C it is 0.16.
For A18G U25A U31A G52A A56G U60A U72C the value was 0.08; for A18G G33A U60A A77U, 0.1; for A18G A20G U51A U60A U67C, 0.21.
Turning to A18G A20U U58C U60C U72A, the self-cleavage was 0.12.
For A18G A20G U66C U78C the value was 0.14.
The figure for A18C U69C U78C is 0.14.
For A18G A28G A47C the value was 0.33.
In the case of A18G C40A A64G, the self-cleavage is 0.18.
The figure for A18G A20G U25C U31C is 0.32; for A18G C34U U41C U43A U67C it is 0.12; for A18G A20U U60C G63A it is 0.19.
For A18G C29U A45G the value was 0.25; for A18G G61A C68A U76A, 0.23.
The figure for A18G A65G U69A is 0.26; for A18G U25C C38U A56G it is 0.19; for A18C U26A U51A A56G U69C it is 0.09.
In the case of A18G A57U U67C, the self-cleavage was 0.16.
The figure for A18G A35U A47U is 0.22; for A18G A20G A57G A77G U80A it is 0.34; for A18G G36A U43C U49C A57G U58C U72A it is 0.08.
For A18G A21G U26A A64U U72C the value was 0.28; for A18G C40A A64G A77U, 0.08.
For A18G A57G U58C U67A U76C the value was 0.14.
For A18C U43C U51A, the self-cleavage turned out to be 0.16.
On to A18G A21G U31A, for which the self-cleavage turned out to be 0.26.
For the variant A18C U51A U66C, the self-cleavage was found to be 0.17.
Consider A18G A28G U41G U67A, for which the self-cleavage was 0.06.
The figure for A18C U26C A35U G53A A65G U74C is 0.02.
In the case of A18G A20U U26A C37U U49C, the self-cleavage was 0.05.
The figure for A18G C32U C39U U49A U60C U80C is 0.07; for A18G A21U G30C A35U A47G it is 0.3; for A18G A45G A77U it is 0.43.
The figure for A18G G36C U48C is 0.05; for A18G U25C U43C U69A A75G it is 0.26; for A18C U49A U51C A75U it is 0.22.
The figure for A18G A21G U43A A56U U67C U80C is 0.19; for A18G C32U U48A U60C U66C A75G it is 0.17; for A18G C38A U54A G63A A65U U74C A77C it is 0.05.
Regarding A18C U31A U69C, the self-cleavage was 0.12.
For A18G C27U A35U the value was 0.47.
The figure for A18G C38U U60C is 0.28.
For A18G G22C U69C C71G U78A the value was 0.14.
In the case of A18C U43C A65G U78A, the self-cleavage stood at 0.26.
For A18G C44U G63U A75G the value was 0.09; for A18G C23U A28C C44G A64U, 0.04; for A18G C40U G52A A56G A64U, 0.08.
For A18C U43A U49A A75U the value was 0.3.
For A18G A28G U49C U54C U72C A75U U80A the value was 0.23.
For A18G A21G A64G U80A, the self-cleavage turned out to be 0.16.
Take A18G C37G U48C: the self-cleavage turned out to be 0.25.
For A18C U51C G63A the value was 0.62; for A18G A28U U41C U72C, 0.32; for A18G U25A A28G C29A C40U U76C, 0.21.
The figure for A18G A64G U78G C79U is 0.77; for A18G G30A C38A A65U it is 0.05.
For A18G A28G U54A C62A the value was 0.2; for A18G G24A A35G A45U U48A A65G U69A, 0.13.
For A18G A35G A45U U49C, the self-cleavage came out at 0.2.
For A18G G46A A57G the value was 0.
For A18G A28G U66C the value was 0.1.
The figure for A18G C40U G63A is 0.36; for A18G A56G A65U U72A U78C it is 0.13; for A18G A28U A35U A64G U72C it is 0.13.
With A18G U25C A64C U72C, the self-cleavage is 0.07.
The figure for A18G C32U A35U C39A U51C is 0.14; for A18G C37G U48C C79U it is 0.3.
The figure for A18G A20G U49A is 0.1; for A18G C32U C44A U78C it is 0.42; for A18G C29U A35G A47U U48G it is 0.24.
On to A18G U25C C29U G33U A56G, for which the self-cleavage came out at 0.15.
For A18G A20U C29U G53A U60C U76C the value was 0.05; for A18C U25C U72A, 0.2.
The figure for A18G G33A G42A C62G is 0.13.
For A18G A35G U60A G70C the value was 0.45; for A18G A65G A77G U78C, 0.28; for A18G A21G G24A U43C A45C A56U A64G, 0.11.
For the variant A18G C29A U43C, the self-cleavage was 0.11.
The figure for A18G A28U A45C U60C G63U U80C is 0.05.
On to A18G A21G C32A A45G, for which the self-cleavage worked out at 0.03.
As for A18G A35U U67A U69C, the self-cleavage was found to be 0.07.
The figure for A18G C32U C59U U60A U80C is 0.21.
A18G A57G U58A A64G: the self-cleavage amounted to 0.12.
For A18G C39A U51A A65G U78C the value was 0.08; for A18G G36A U60C U72C, 0.06; for A18C U41A A47G A65G, 0.15.
Consider A18G G33A A35C U66C U74C, for which the self-cleavage was found to be 0.07.
For A18G C34G G36U the value was 0.08; for A18G A57G U60C, 0.34; for A18G G33A U60C U69C U80G, 0.04.
For A18G G42A A64G U80C the value was 0.3; for A18G A56G U58C U76C, 0.14; for A18G A20G U58C U67C, 0.17.
For A18C U41A A45G U72G U76C the value was 0.06; for A18G A28G A65U, 0.43.
For A18G C27A A28G U54C A57U A75G, the self-cleavage is 0.07.
For A18G C23A U54C U72A C79U the value was 0.28; for A18G C34U U48C U49C U67G U72C, 0.07.
For A18G U25C A47G A64U U67C U72C the value was 0.23; for A18G U25C C39A C50U U60C, 0.09.
For A18G U25A U76A A77G the value was 0.21.
On to A18C U48G A57G, for which the self-cleavage amounted to 0.5.
The figure for A18G A20G U43G U54A U67C A77G is 0.13; for A18G A56G A64C U69A U80G it is 0.18; for A18G C29A A64G A77U it is 0.15.
The figure for A18G A28U C32G G42A C44U A64U is 0.07.
Consider A18G A20G U43C A64U A65G, for which the self-cleavage came to 0.29.
The figure for A18G G33A A56U U58C U69C is 0.08.
For A18G A21G G24A C29G the value was 0.31.
The figure for A18G A45G A64U is 0.23; for A18G A20G A35U U58A U60A U72C it is 0.04; for A18G A45U U49A it is 0.18.
On to A18G A45U U49C, for which the self-cleavage was 0.13.
The figure for A18C U51C U67C A75G U76G is 0.15.
As for A18G A56G U60A A65G, the self-cleavage was 0.31.
The figure for A18G C23A C29U C37A U41A U54C is 0.12.
Take A18G A47G U60G U74C U78A: the self-cleavage was found to be 0.24.
The figure for A18G C29U G42A A57U U58A U69C is 0.12; for A18G A75G U80C it is 0.46; for A18G A20G G33A G36U U43C U76C it is 0.16.
For A18G A47G U58C U72A A75U the value was 0.7; for A18G A28G U58C, 0.21.
The figure for A18G C23A U31C G36C A56G U69C is 0.05.
For the variant A18G A47U U69A, the self-cleavage was 0.22.
For A18G G30U G52A A64G, the self-cleavage amounted to 0.12.
For A18G U25A C32U U48C the value was 0.2; for A18G A20U U48C, 0.16; for A18G A28C U58A U67A, 0.09.
The figure for A18G A35G U80C is 1.18; for A18G A20G U26C U51C it is 0.1; for A18G G33A A45G U69C it is 0.11.
For A18G A35G A56G A64U U80C, the self-cleavage was determined as 0.38.
For A18G A20G G22C U43G U49A A56U the value was 0.04.
